Certain results were filed several times, with different values. The list is limited to them. An entry can have further records. Values given together appear to be repeats (runs, samples, wells or individuals).
Molecular target: EGVD/AE-ACT
Assay: reaction of the protease with the serpin bait EGVD/AE-ACT

B1: chymase C22S/L99H/F173L/K192R/Y215H/R217T/S218V/A226R (enzyme)
chain: IIGGTESKPHSRPYMAYLEIVTSNGPSKFCGGFLIRRNFVLTAAHCAGRSITVTLGAHNITEEEDTWQKLEVIKQFRHPKYNTSTHHHDIMLLKLKEKASLTLAVGTLPFPSQFNFVPPGRMCRVAGWGRTGVLKPGSDTLQEVKLRLMDPQACSHLRDFDHNLQLCVGNPRKTKSAFRGDSGGPLLCAGVAQGIVSHGTVDAKPPRVFTRISHYRPWINQILQAN
k*app (second order rate constant): 341 and 2410 [lines of one column]

— patent publication US20240117334A1, “FACTOR B PROTEASES” (Vertex Pharmaceuticals Incorporated, priority 2021, published 2024)
